Where a name gives a salt, the structure may show the parent alone. The list shows a part of the results.

This experiment deals with Schistosoma mansoni schistosomula. As to the kind of experiment: phenotypic hit in primary schistosomula screen (any phenotype vs DMSO control) (binary (1 = hit, 0 = no phenotype)); higher = active (phenotype induced). The note with it: 1 µM; time (d): 7.
As for `C=C1CCC2C(CC2(C)C)C(=C)CC/C1=N/O` (stereo unspecified) [5-hydroxyiminoisocaryophyllene], the phenotypic hit is inactive: 0.
As to `CC1=CC(=O)CC(C)(C)C1(O)/C=C/C(C)=C\C(=O)O` (mixture of isomers) [abscisic acid (cis,trans; +/-)], the phenotypic hit is inactive: 0.
With `Nc1ncnc2c1ncn2[C@@H]1O[C@H](COP(=O)(O)O)[C@@H](O)[C@H]1O` [adenosine phosphate], the phenotypic hit is inactive: 0.
On to `CCC(=O)O[C@H]1[C@H](O[C@@H]2[C@@H](C)[C@H](O[C@H]3C[C@@](C)(OC)[C@@H](O)[C@H](C)O3)[C@@H](C)C(=O)O[C@H](CC)[C@@](C)(O)[C@H](O)[C@@H](C)C(=O)[C@H](C)C[C@@]2(C)O)O[C@H](C)C[C@@H]1N(C)C` [erythromycin estolate], for which the phenotypic hit is inactive: 0.
For the compound `Oc1cc(O)c2c(c1)O[C@H](c1ccc(O)c(O)c1)[C@@H](O)C2` [cianidanol], the phenotypic hit is inactive: 0.
As for `CC(N/C(=N\C#N)Nc1ccncc1)C(C)(C)C` (stereo unspecified) [Pinacidil], the phenotypic hit is inactive: 0.
With `CCN(CC)CCOC(=O)C1(C2CCCCC2)CCCCC1` [dicyclomine hydrochloride] the figure was inactive: 0; with `O=c1cc(-c2ccccc2)oc2c(O)c(O)ccc12` [7,8-dihydroxyflavone], inactive: 0.
Turning to `COc1ccc([C@@H]2CC(=O)c3c(O)cc(O)cc3O2)cc1O` [hesperetin], the phenotypic hit was inactive: 0.
`CC1=C(/C=C/C(C)=C/C=C/C(C)=C/C=C/C=C(C)/C=C/C=C(C)/C=C/[C@@]23O[C@]2(C)C[C@@H](O)CC3(C)C)C(C)(C)C[C@H](O)C1` [antheraxanthin]: the phenotypic hit is inactive: 0.
Take `CC1=C(CCC(=O)O)c2cc3nc(cc4[nH]c(cc5[nH]c(cc1n2)c(C)c5C(C)O)c(C)c4C(C)O)C(C)=C3CCC(=O)O` (stereo unspecified) [haematoporphyrin dihydrochloride]: the phenotypic hit is inactive: 0.
With `CN(C)CCCN1c2ccccc2Sc2ccc(C(F)(F)F)cc21` [triflupromazine hydrochloride] the figure was active: 1.
As for `O=C1C[C@@H](c2ccccc2)Oc2cc(O)cc(O)c21` [pinocembrin], the phenotypic hit is inactive: 0.
As to `O=C1c2c(O)cccc2Cc2cccc(O)c21` [anthralin], the phenotypic hit is inactive: 0.
Regarding `CC(=O)Oc1ccc2c(c1OC(C)=O)OCC1(O)Cc3c(cc(OC(C)=O)c(OC(C)=O)c3OC(C)=O)C21` (stereo unspecified) [haematoxylin pentaacetate], the phenotypic hit was inactive: 0.
Turning to `C[C@@H]1C[C@H]2[C@@H]3C[C@H](F)C4=CC(=O)C=C[C@]4(C)[C@@]3(F)[C@@H](O)C[C@]2(C)[C@@]1(O)C(=O)CO` [flumethasone], the phenotypic hit is inactive: 0.
As for `CC[C@H](/C=C/[C@@H](C)[C@H]1CC[C@H]2[C@@H]3CC=C4C[C@@H](O)CC[C@]4(C)[C@H]3CC[C@]12C)C(C)C` [stigmasterol], the phenotypic hit is inactive: 0.
For the compound `CCCCCCCCCCCCCCCCCCOCC(O)CO` (stereo unspecified) [batyl alcohol], the phenotypic hit is inactive: 0.
Consider `COC1=C[C@@H](C)[C@@H]2C[C@H]3OC(=O)C[C@H]4C(C)=C(OC)C(=O)[C@H]([C@@]2(C)C1=O)[C@@]34C` [quassin], for which the phenotypic hit is inactive: 0.
Next, `CCCCCc1c2c(cc(O)c1C(=O)O)OC(=O)c1c(cc(OC)cc1C(=O)CCCC)O2` [lobaric acid]: inactive: 0.
In the case of `CN1CCN(C2=Nc3ccccc3Oc3ccc(Cl)cc32)CC1` [Loxapine succinate], the phenotypic hit is inactive: 0.
On to `N=C(NCCCCCCNC(=N)NC(=N)Nc1ccc(Cl)cc1)NC(=N)Nc1ccc(Cl)cc1` [chlorhexidine], for which the phenotypic hit was inactive: 0.
With `COc1c2occc2cc2ccc(=O)oc12` [methoxsalen], the phenotypic hit is inactive: 0.
With `COC(=O)c1cc(O)c(=O)c2c(O)c(O)ccc2c1` [methyl 7-deshydroxypyrogallin-4-carboxylate], the phenotypic hit is inactive: 0.
Next, `C[C@H](CCC(=O)O)[C@H]1CC[C@H]2[C@@H]3CC[C@H]4C[C@H](O)CC[C@]4(C)[C@H]3C[C@H](O)[C@]12C` [allodeoxycholic acid]: inactive: 0; `CC(=O)S[C@@H]1CC2=CC(=O)CC[C@]2(C)[C@H]2CC[C@@]3(C)[C@@H](CC[C@@]34CCC(=O)O4)[C@H]12` [spironolactone]: inactive: 0; `CC(Cc1cccc(C(F)(F)F)c1)NCCOC(=O)c1ccccc1` (stereo unspecified) [benfluorex hydrochloride]: inactive: 0.
In the case of `C=C1CC[C@H](O)C/C1=C/C=C1\CCC[C@]2(C)[C@@H]([C@H](C)CCCC(C)C)CC[C@@H]12` [cholecalciferol], the phenotypic hit was inactive: 0.
Turning to `NNCCc1ccccc1` [phenelzine sulfate], the phenotypic hit was inactive: 0.
With `CN1CCN(CC/C=C2/c3ccccc3Sc3ccc(S(=O)(=O)N(C)C)cc32)CC1` [thiothixene], the phenotypic hit is active: 1.
Turning to `COc1ccc2c(=O)c(OC)c(-c3ccccc3)oc2c1` [3,7-dimethoxyflavone], the phenotypic hit was inactive: 0.
Turning to `COc1ccc(-c2cc(=O)c3ccccc3o2)cc1` [4'-methoxyflavone], the phenotypic hit is inactive: 0.
On to `CC1(C)C(O)CC(O)C2(C)C1CC(=O)C1(C)C2CCC2(C)C(C(=O)O)OC(=O)C3OC321` (stereo unspecified) [dideacetyl (1,3)-7-desacetoxy-7-oxo-deoxykhivorinic acid], for which the phenotypic hit is inactive: 0.
For `OC(Cn1cncn1)(Cn1cncn1)c1ccc(F)cc1F` [fluconazole], the phenotypic hit was inactive: 0.
With `NCCc1c[nH]cn1` [Histamine dihydrochloride], the phenotypic hit was inactive: 0.
Take `CC[N+](C)(C)c1cccc(O)c1` [edrophonium chloride]: the phenotypic hit is inactive: 0.
Take `CC(=O)[C@@]1(O)CC[C@H]2[C@@H]3C=C(Cl)C4=CC(=O)[C@@H]5C[C@@H]5[C@]4(C)[C@H]3CC[C@@]21C` [cyproterone]: the phenotypic hit was inactive: 0.
Next, `Nc1[nH]cnc2ncnc1-2` [adenine]: inactive: 0; `Cc1ccc(C(=O)c2ccc(CC(=O)O)n2C)cc1` [tolmetin sodium]: inactive: 0; `COC(=O)Nc1nc2cc(C(=O)c3cccs3)ccc2[nH]1` [nocodazole]: inactive: 0.
As to `CCCCN(CCCC)CCCOC(=O)c1ccc(N)cc1` [butacaine], the phenotypic hit is inactive: 0.
With `O=C(O)CN1C(=O)c2cccc3cccc(c23)C1=O` [alrestatin] the figure was inactive: 0.
Regarding `CC12CCC3C(CC3(C)C)C(C)(CCC1=O)O2` (stereo unspecified) [3,7-epoxycaryophyllan-6-one], the phenotypic hit was inactive: 0.
Consider `CC(=O)OCC(=O)[C@@]1(O)CC[C@H]2[C@@H]3CCC4=CC(=O)CC[C@]4(C)[C@@]3(F)[C@@H](O)C[C@@]21C` [fludrocortisone acetate], for which the phenotypic hit is inactive: 0.
With `CC(=O)O[C@@H]1C[C@H]2C(C)(C)C(=O)CC[C@]2(C)[C@H]2CC[C@@]3(C)[C@H](c4ccoc4)OC(=O)[C@H]4O[C@]43[C@@]21C` [dihydrogedunin] the figure was inactive: 0.
As for `O=C(O)CCCCCCCC(=O)O` [azelaic acid], the phenotypic hit was inactive: 0.
With `CCCCCCCCCCCCCCCC(=O)OC/C=C(C)/C=C/C=C(C)/C=C/C1=C(C)CCCC1(C)C` [retinyl palmitate] the figure was inactive: 0.
As for `COc1ccc(-c2cc(=O)c3c(O)c(OC)c(OC)cc3o2)cc1O` [eupatorin], the phenotypic hit was inactive: 0.
With `NS(=O)(=O)c1cc(C2(O)NC(=O)c3ccccc32)ccc1Cl` (stereo unspecified) [chlorthalidone], the phenotypic hit is inactive: 0.
With `CC(=O)OCC(=O)[C@@]1(O)CC[C@H]2[C@@H]3CCC4=CC(=O)CC[C@]4(C)[C@H]3[C@@H](O)C[C@@]21C` [hydrocortisone acetate] the figure was inactive: 0; with `CC(C)c1c(C(=O)Nc2ccccc2)c(-c2ccccc2)c(-c2ccc(F)cc2)n1CC[C@@H](O)C[C@@H](O)CC(=O)O` [atorvastatin calcium], inactive: 0.
Next, `C=CCc1ccc(O)c(OC)c1` [eugenol]: inactive: 0; `C=CC(N)CCC(=O)O` (racemic) [(±)-gamma-Vinyl GABA]: inactive: 0; `CCn1cc(C(=O)O)c(=O)c2cc(F)c(N3CCNCC3)nc21` [enoxacin]: inactive: 0.
With `CCCc1ncc(C[n+]2ccccc2C)c(N)n1` [amprolium] the figure was inactive: 0.
With `C=CC(C)(O)CCC=C(C)CCC=C(C)C` (mixture of isomers) [nerolidol], the phenotypic hit is inactive: 0.
Turning to `O=C(O)CN(CCN(CC(=O)O)CC(=O)O)CC(=O)O.[Na+].[Na+].[Na+]` [trisodium ethylenediamine tetracetate], the phenotypic hit was inactive: 0.
As to `CC(C(=O)O)c1cccc(Oc2ccccc2)c1` (stereo unspecified) [fenoprofen], the phenotypic hit was inactive: 0.
As for `CC(=O)N[C@@H](Cc1c[nH]c2ccccc12)C(=O)O` [acetyltryptophan], the phenotypic hit was inactive: 0.
Consider `COc1ccccc1-c1coc2cc(O)ccc2c1=O` [7-hydroxy-2'-methoxyisoflavone], for which the phenotypic hit is inactive: 0.
In the case of `COC(=O)C[C@H]1C(C)(C)[C@@H](O)[C@@H]2CC3=C4C=C(OC)O[C@@H](c5ccoc5)[C@]4(C)CCC3[C@@]1(C)C2=O` (stereo partly drawn) [3-deoxo-3beta-hydroxymexicanolide 16-enol ether], the phenotypic hit is inactive: 0.
In the case of `COc1ccc2c(C)cc(=O)oc2c1` [hymecromone methyl ether], the phenotypic hit was inactive: 0.
For the compound `O=C1OC(c2ccc(O)cc2)(c2ccc(O)cc2)c2ccccc21` [phenolphthalein], the phenotypic hit was inactive: 0.
`COc1cc(OC)c2c(=O)cc(-c3ccccc3)oc2c1` [chrysin dimethyl ether]: the phenotypic hit is inactive: 0.
Next, `CC(C)NCC(O)COc1cccc2ccccc12` (racemic) [(±)-Propranolol hydrochloride]: inactive: 0.
With `O=c1cc(-c2ccc(O)cc2)oc2cc(O[C@@H]3O[C@H](CO)[C@@H](O)[C@H](O)[C@H]3O[C@@H]3OC[C@](O)(CO)[C@H]3O)cc(O)c12` [apiin], the phenotypic hit is inactive: 0.

Source of the values: the supplement of paper PMC2702839.
